# Out of some 310,000 compounds screened, about 2,200 (0.71%) showed an effect of 50% or more. Effects have a minus sign here. The list shows a part of the results.
# Target: human ether-à-go-go-related gene (hERG) potassium channel (human, UniProt Q12809)
# Assay: primary screen, population patch clamp on CHO cells stably expressing hERG
# Chain of human ether-à-go-go-related gene (hERG) potassium channel (Q12809 whole entry, looked up): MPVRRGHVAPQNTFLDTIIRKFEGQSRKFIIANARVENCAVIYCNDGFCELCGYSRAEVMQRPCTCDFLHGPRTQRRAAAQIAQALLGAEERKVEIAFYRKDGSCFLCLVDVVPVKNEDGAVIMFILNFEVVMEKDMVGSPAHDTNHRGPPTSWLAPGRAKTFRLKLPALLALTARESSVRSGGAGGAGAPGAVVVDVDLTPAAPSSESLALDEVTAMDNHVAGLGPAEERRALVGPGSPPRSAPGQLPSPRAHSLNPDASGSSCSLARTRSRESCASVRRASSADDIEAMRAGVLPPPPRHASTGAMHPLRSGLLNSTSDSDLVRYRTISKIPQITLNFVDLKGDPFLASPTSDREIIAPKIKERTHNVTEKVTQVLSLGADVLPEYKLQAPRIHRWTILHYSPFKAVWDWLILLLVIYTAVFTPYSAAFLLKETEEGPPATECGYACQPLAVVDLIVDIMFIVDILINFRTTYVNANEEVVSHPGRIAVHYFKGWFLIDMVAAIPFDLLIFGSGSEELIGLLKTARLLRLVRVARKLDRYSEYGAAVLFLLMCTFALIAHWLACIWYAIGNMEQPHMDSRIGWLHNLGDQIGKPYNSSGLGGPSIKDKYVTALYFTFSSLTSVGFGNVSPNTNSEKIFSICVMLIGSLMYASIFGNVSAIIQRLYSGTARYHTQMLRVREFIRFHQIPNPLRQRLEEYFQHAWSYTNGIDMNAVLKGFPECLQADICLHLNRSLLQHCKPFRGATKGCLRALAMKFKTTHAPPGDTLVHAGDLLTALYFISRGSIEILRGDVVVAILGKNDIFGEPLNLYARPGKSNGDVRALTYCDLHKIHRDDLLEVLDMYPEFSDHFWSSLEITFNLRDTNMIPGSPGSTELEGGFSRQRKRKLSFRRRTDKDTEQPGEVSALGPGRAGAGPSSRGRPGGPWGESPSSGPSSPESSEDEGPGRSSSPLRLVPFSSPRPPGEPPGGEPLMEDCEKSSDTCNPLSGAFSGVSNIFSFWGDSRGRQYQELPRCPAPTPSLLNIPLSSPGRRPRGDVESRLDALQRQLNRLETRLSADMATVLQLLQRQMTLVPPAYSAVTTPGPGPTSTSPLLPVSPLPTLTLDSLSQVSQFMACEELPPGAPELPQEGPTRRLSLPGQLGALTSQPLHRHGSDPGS
row,Structure (SMILES),"hERG current change (%, negative = inhibition) at 1uM [%]"
1,Cc1noc(C)c1COC(=O)c1ccc(S(=O)(=O)N2CCCCC2)cc1,12.8
2,Oc1ccc(Cl)cc1-c1cc(-c2ccccc2)n[nH]1,15.4
3,CCN(CC)c1ccc2c(-c3ccc(S(=O)(=O)[O-])cc3S(=O)(=O)[O-])c3ccc(=[N+](CC)CC)cc-3oc2c1.[Na+],13
4,COC(=O)C(NC(=O)c1c(C)nn(C)c1Cl)c1ccccc1 (centres unmarked),14.2
5,O=C(Nc1cccc(-c2ccc(F)cc2)c1)C1CCCN(C(=O)c2cscn2)C1 (centres unmarked),14
6,Cc1ccc(N)c([N+](=O)[O-])c1,12.3
7,CNC(=O)c1c(NC(=O)c2ccco2)sc2c1CCC2,13
8,CCCCc1nnc(SCC(=O)NC2CCCCC2)n1C,10.4
9,COCC(=O)Nc1ccc(Nc2ccccc2)cc1,-3.39
10,Clc1ccc(C2=NOC(c3nnc(-c4ccccc4)o3)C2)cc1 (centres unmarked),8.18
11,O=C(O)CCN1C(=O)c2ccc(NC(=O)c3ccco3)cc2C1=O,4.1
12,O=C(O)c1nn(Cc2ccc(Cl)cc2Cl)c2ccccc12,13.3
13,COc1ccc(CCNC(=O)Nc2cccc([N+](=O)[O-])c2)cc1,13.3
14,CCCCC(=O)NC1(C(F)(F)F)C(=O)N(Cc2ccco2)C(C)=C1C(=O)OC (centres unmarked),10.4
15,O=C1C2CC=CCC2C(=O)N1n1cnnc1 (centres unmarked),12.3
16,COc1cc2cc(CCCOC(=O)CCC(=O)O)oc(=O)c2cc1OC,13.3
17,CC1=CCC2C(=O)N(c3ccc(OC(=O)c4ccco4)cc3)C(=O)C2C1 (centres unmarked),12.7
18,O=C(Nc1ccccn1)c1ccc2c(c1)S(=O)(=O)c1ccccc1C2=O,4.95
19,Cc1ccc(/C=C2\S/C(=N/S(=O)(=O)c3cccs3)NC2=O)cc1,13
20,Cc1ccc(S(=O)(=O)Nc2ccc(N3CCOCC3)cc2)cc1[N+](=O)[O-],1.09
21,CCN(CC)S(=O)(=O)c1ccc(N2CCOCC2)c(NC(=O)COc2ccccc2)c1,-1.21
22,C[C@H](Nc1ncnc2sc3c(c12)CCC3)C(=O)O,15.5
23,S=c1[nH]c2cc3c(cc2[nH]1)OCCO3,12.4

row,Structure (SMILES),"hERG current change (%, negative = inhibition) at 1uM [%]"
1,COc1ccc(CCNC(=O)CSc2nc(N)cc(=O)[nH]2)cc1OC,24.9
2,COCCc1ncc(CN2CCCCC2C(=O)Nc2ccc(Oc3ccccc3)nc2)cn1 (centres unmarked),3.33
3,CC(NC(=O)C(=O)NCC1CCCO1)c1ccccc1 (centres unmarked),14.7
4,C#CCNC(=O)C1=C[C@H](c2ccc3c(c2)OCO3)C[C@H](OCCCCO)O1,15
5,CCN(CC)C(=O)n1c(Cc2ccccc2)nc2ccccc21,2.89
6,COC(=O)C1=C(C)NC(=O)/C1=C\c1cc(C)n(-c2c(C)cccc2C)c1C,-0.839
7,O=c1c2ccccc2nc(CNCc2ccco2)n1-c1ccc(F)cc1,8.43
8,COc1ccc(OC)c(-n2nnnc2SCC(=O)Nc2ccccc2OC)c1,11.7
9,COC(=O)C(CC(C)C)NC(=O)/C=C/c1ccc(Cl)cc1 (centres unmarked),3.59
10,COc1ccc(CN2CCCC(C(=O)c3ccc4c(c3)OCO4)C2)c(F)c1 (centres unmarked),-8.02
11,CN1CCN(c2ccc(Cl)cc2N)CC1,6.48
12,N=c1c(C(=O)NC2CCCCC2)cc2c(=O)n3ccccc3nc2n1CC1CCCO1 (centres unmarked),-79.2
13,CCOc1ccc(NC(=O)CN(C)C(=O)c2ccc(C3SCCS3)cc2)cc1OCC,8.38
14,CCOC(=O)Cc1csc(NC(=O)CSc2nnc3ccccn23)n1,12.2
15,O=C(NCCN1CCNC1=O)C1CCC(=O)N(Cc2cccc(C(F)(F)F)c2)C1 (centres unmarked),9.07
16,CCN(CC)C(=O)CSc1nc2nc(C)cc(C)c2c(=O)[nH]1,12.4
17,CCCN1C2=C(C(=O)CCC2)C(c2ccc(O)c(Br)c2)C2=C1CCCC2=O,4.46
18,COc1ccc(CNC(=O)CSc2nnc3c(n2)[nH]c2ccc(F)cc23)cc1,11.8
19,CCOc1ccc(-n2nnnc2SCC(=O)Nc2ccc(NC(C)=O)cc2)cc1,19.3
20,COc1ccc(OC)c(CCNC(=O)CCc2nnc3ccc(N4CCOCC4)nn23)c1,13.4
21,CCn1c(CC(=O)Nc2ccccc2)nnc1SCC(=O)NC1=NCCS1,8.66
22,O=C(CC(c1ccccc1)c1cc(Cl)ccc1O)N1CCOCC1 (centres unmarked),1.93
23,CC(C)(C)c1nn(-c2ccccc2)c2[nH]c(=O)c(C=O)cc12,9.55

row,Structure (SMILES),"hERG current change (%, negative = inhibition) at 1uM [%]"
1,Cc1ccc(N(CN2CCCC2=O)C(=O)c2ccccc2)cc1,16.2
2,Cc1ccccc1N1CC(C(=O)Nc2ccc(S(=O)(=O)NCC3CCCO3)cc2)CC1=O (centres unmarked),13.4
3,O=C(c1ccc(-c2ccc([N+](=O)[O-])cc2Cl)o1)N1CCOCC1,1.35
4,S=c1[nH]nc(C2CCCCC2)n1/N=C/c1ccccc1,16.8
5,CN(C)S(=O)(=O)c1cccc(NC(=O)COC(=O)c2c[nH]c(=O)[nH]c2=O)c1,27
6,OC(CNCc1ccc(F)cc1)(c1ccccc1)c1ccc(F)cc1 (centres unmarked),6.27
7,COc1cc(OC)c(C2N(C)c3ccccc3N2C)cc1OC,12.7
8,CN(CC(=O)N1CCCCC1)S(=O)(=O)c1ccc(Cl)cc1,11.4
9,COc1cc(-c2nnc(SCc3cc(=O)oc4cc(O)c(O)cc34)o2)cc(OC)c1OC,9.43
10,COc1cccc(/C=C2\Oc3cc(OCC(=O)N4CCCC4)ccc3C2=O)c1OC,14.3
11,NC(=O)CC(NC(=O)c1cccc(Br)c1)c1ccc(N2CCC(N3CCCCC3)CC2)c([N+](=O)[O-])c1 (centres unmarked),9.51
12,COc1cccc(Cn2cccc(NC(=O)Nc3ccccc3C)c2=O)c1,12.9
13,O=[N+]([O-])c1cccc(S(=O)(=O)NCCc2cn3ccccc3n2)c1,-3.32
14,CCOc1cc(-c2cc(-c3ccccc3)nc(N)c2C#N)ccc1O,16.6
15,COc1ccc(C2N=C(c3ccccc3)NC(c3ccccc3)=N2)cc1,2.9
16,Cc1cccc(-n2c(CNC(=O)COc3ccccc3)nnc2SCC(=O)Nc2nccs2)c1,5.1
17,CCOC(=O)c1sc(NC(=O)CSc2nnc(C(C)C)n2C)nc1C,13.5
18,O=C1C(=O)c2ccc(-c3ccccc3)cc2-c2ccccc21,14.3
19,COc1ccc(O)c(/C=N/NC(=S)Nc2cccnc2)c1,11.9
20,CC(/C=N/N1CCN(c2ccccn2)CC1)=C\c1ccccc1,10.3
21,O=C(CSc1ncccn1)NCc1ccc2c(c1)OCO2,5.32
22,Cc1cccc(NC(=O)C2C3CCCCC32)c1 (centres unmarked),19.1
23,CCCc1ccc(C(=O)CCC(=O)NNC(=O)c2ccncc2)cc1,3.3

row,Structure (SMILES),"hERG current change (%, negative = inhibition) at 1uM [%]"
1,CC(C)(C)C(O)(CC#CCN1CCCC1)c1ccccc1.Cl (centres unmarked),24
2,Cn1nccc1C(=O)N(CCN1CCCCC1)CC1CCCN(C2CCCC2)C1 (centres unmarked),8.81
3,COc1ccc(N2CC(C(=O)N[C@H](C(=O)NC(C)c3ccccc3)C(C)C)CC2=O)cc1 (some centres unmarked),8.37
4,Cn1c(NC(=O)c2cccnc2)nc2ccccc21,14.6
5,CCC(C)(C)C1CCc2[nH]nc(C(=O)NCc3ccc(Cl)cc3)c2C1 (centres unmarked),19.4
6,O=C(Nc1ccc(O)c(-c2nc3ccccc3s2)c1)c1cccs1,-3.11
7,Cc1ccc(C(=O)N2CCN(c3cccc(C)c3C)CC2)o1,3.6
8,Cc1nc(NCCNC(=O)c2ccco2)c2c(C)c(C)sc2n1,17.4
9,CCOC(=O)c1sc2nccc(OC)c2c1N=CNOC,5.68
10,COc1ccc(N(C(=O)c2ccco2)C(C(=O)NC2CCCC2)c2cccs2)cc1OC (centres unmarked),16.6
11,CCC(C)NC(=O)CCCCCn1c(=O)[nH]c2cc(OC)c(OC)cc2c1=O (centres unmarked),-3
12,Cc1cccc(NC(=O)c2cc(-c3cc(Cl)ccc3O)n[nH]2)c1,15.7
13,CC(C)(C)C(=O)Nc1cc(C(F)(F)F)ccc1-n1ccnc1,13.2
14,O=C1OCCC/C1=C\c1ccc2c(c1)OCO2,8.36
15,COc1ccc(CC(=O)OCC(=O)N(CC(C)C)c2c(N)n(Cc3ccccc3)c(=O)[nH]c2=O)cc1,12.3
16,Cc1ccc(-c2nc(CS(=O)CC(=O)NC3CCCC(C)C3C)c(C)o2)cc1 (centres unmarked),14.5
17,CN(c1ccccc1)S(=O)(=O)c1ccc(Cl)c(C(=O)NCCc2c[nH]c3ccccc23)c1,-4.51
18,O=c1oc(-c2ccc(Br)o2)nc2ccccc12,15.1
19,COc1ccc(Cl)cc1NC(=O)CN(C)CC(=O)Nc1c(C)n(C)n(-c2ccccc2)c1=O,12.4
20,C=C1SC(Nc2c(C)cccc2C)=NC12CCCCC2,11.4

# Source: PMC4336329 (PLoS ONE, 2015)
